The campaign covered roughly 310,000 compounds. About 14,000 (4.5%) showed an effect of 50% or more. Effects have a minus sign here. The list shows a part of the results.
target: human ether-à-go-go-related gene (hERG) potassium channel (human, UniProt Q12809); test: primary screen, population patch clamp on CHO cells stably expressing hERG
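Note: peak tail current of the secondary pulse compared with the same well before compound.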

Sequence of human ether-à-go-go-related gene (hERG) potassium channel (Q12809 whole entry, looked up): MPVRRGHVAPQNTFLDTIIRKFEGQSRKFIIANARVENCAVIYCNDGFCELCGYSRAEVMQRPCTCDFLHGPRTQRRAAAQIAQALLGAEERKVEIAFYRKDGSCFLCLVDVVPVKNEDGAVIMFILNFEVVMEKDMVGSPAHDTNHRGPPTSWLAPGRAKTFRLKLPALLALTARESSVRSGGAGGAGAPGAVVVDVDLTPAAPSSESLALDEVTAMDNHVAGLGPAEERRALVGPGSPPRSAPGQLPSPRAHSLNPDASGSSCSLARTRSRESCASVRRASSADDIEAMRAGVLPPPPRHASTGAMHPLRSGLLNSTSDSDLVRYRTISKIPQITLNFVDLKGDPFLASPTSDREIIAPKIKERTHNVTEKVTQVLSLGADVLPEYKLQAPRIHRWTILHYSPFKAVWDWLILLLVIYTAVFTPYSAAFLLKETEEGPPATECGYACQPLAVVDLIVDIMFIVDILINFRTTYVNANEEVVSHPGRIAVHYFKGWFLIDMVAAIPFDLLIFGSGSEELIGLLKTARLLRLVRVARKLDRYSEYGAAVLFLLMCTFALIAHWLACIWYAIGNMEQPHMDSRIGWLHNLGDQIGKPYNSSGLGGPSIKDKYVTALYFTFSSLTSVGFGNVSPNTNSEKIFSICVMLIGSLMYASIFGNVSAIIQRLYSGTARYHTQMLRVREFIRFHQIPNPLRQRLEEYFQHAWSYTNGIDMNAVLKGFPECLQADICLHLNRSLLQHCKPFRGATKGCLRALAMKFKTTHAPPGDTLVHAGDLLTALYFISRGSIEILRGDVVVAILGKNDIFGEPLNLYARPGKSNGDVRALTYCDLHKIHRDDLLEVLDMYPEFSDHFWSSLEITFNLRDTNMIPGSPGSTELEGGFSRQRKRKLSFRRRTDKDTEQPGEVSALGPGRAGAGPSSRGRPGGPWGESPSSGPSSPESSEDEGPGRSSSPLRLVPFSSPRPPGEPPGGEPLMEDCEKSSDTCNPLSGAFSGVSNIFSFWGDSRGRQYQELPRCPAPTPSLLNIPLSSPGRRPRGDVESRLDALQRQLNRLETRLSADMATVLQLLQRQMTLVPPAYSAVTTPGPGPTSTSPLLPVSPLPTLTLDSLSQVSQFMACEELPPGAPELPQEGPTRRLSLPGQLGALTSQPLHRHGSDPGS

| SMILES | hERG current change (%, negative = inhibition) at 10uM [%] |
| --- | --- |
| CCc1ccc(N(C(=O)CNC(=O)c2ccco2)C(C(=O)NCC2CCCO2)c2ccccc2)cc1 (centres unmarked) | -20.8 |
| Cc1cccc(C)c1NC(=O)CN(C)C(=O)CSCc1c(C)noc1C | 0.966 |
| COc1ccc(S(=O)(=O)NCC2CCCN(C(=O)c3sccc3C)C2)cc1 (centres unmarked) | -10.9 |
| C[C@H]1CCC[C@]2(O[C@H](CCO)C[C@H](O)[C@H]2O)O1 | 5.88 |
| Cc1ccc(C2NC(=S)NC3=C2C(=O)CCC3)cc1 (centres unmarked) | 13.2 |
| Cc1cc(C(=O)N/N=C/c2ccccn2)n[nH]1 | 19.6 |
| COc1ccc(-c2nc(C#N)c(N3CCN(c4cccc(Cl)c4)CC3)o2)cc1OC | 12.2 |
| CC(C)CN1CCC(=O)N(CCN=[N+]=[N-])CC1 | -12.5 |
| CCC(=O)N1c2ccc(S(=O)(=O)N3CCN(c4ccccc4Cl)CC3)cc2CC1C (centres unmarked) | -4.75 |
| CCOC(=O)N1CCN(C(=O)c2cc3n(n2)C(C(F)(F)F)CC(c2ccc4c(c2)OCO4)N3)CC1 (centres unmarked) | -6.05 |
| CC(=O)c1cc2c(cc1NC(=O)CCn1cnnn1)OCO2 | -14.4 |
| COc1ccc(OCc2cc(C(=O)NC(C)Cc3ccccn3)no2)c(Cl)c1 (centres unmarked) | -22 |
| O=C(O)CCN(CCC(=O)O)c1nnc(SCc2ccccc2)s1 | 13.5 |
| COc1ccc(NC(=O)COC(=O)C2C3CC4OC(=O)C2C4C3)cc1 (centres unmarked) | 12.4 |
| CCN(CC(=O)Nc1ccc(NC(C)=O)cc1)C(=O)/C=C/c1ccc(S(=O)(=O)N2CCCCCC2)cc1 | 15.2 |
| COc1ccccc1N1CCN(C(=O)CCc2nnc3ccc(N4CCOCC4)nn23)CC1 | 5.06 |
| O=C(NC1CCCCC1)C(c1cccnc1)N(CCc1ccccc1)C(=O)Cc1cccs1 (centres unmarked) | -13 |
| COc1ccc(NCCC(O)c2ccc(Cl)cc2)cc1 (centres unmarked) | 9.65 |
| O=S1(=O)C=C(SCc2ccc(F)cc2)Nc2ccccc21 | -26.9 |
| Cn1c(O)c(N=Nc2ccccc2)c2ccccc21 | 12.8 |
| O=C(NCc1ccccc1)C1=C[C@H](C2CCCCC2)C[C@H](OCCCCO)O1 | -3.07 |
| CC(=O)N1C(=O)/C(=C2\SC(=S)N(c3c(C)n(C)n(-c4ccccc4)c3=O)C2=O)c2ccccc21 | 1.55 |

| SMILES | hERG current change (%, negative = inhibition) at 10uM [%] |
| --- | --- |
| COc1cc(NC(=O)c2ccccc2F)c(OC)cc1NC(=O)CN1CCCCC1.Cl | -5.55 |
| CN(Cc1ccccc1)C(=O)C1CCCN(Cc2ccc(Cl)cc2)C1.O=C(O)C(=O)O (centres unmarked) | -71 |
| COc1cc(/C=C/C(=O)O)ccc1OS(=O)(=O)c1cc(C)ccc1C | 9.78 |
| CCOC(=O)N(CC)c1ccc(C(O)(C(=O)OCC)C(F)(F)F)cc1 (centres unmarked) | 3.68 |
| C=CCn1c(=O)c(C(=O)Nc2ccccc2C(=O)OCC)c(O)c2ccccc21 | 3.09 |
| Cc1ccccc1OCC(O)Cn1c(Br)nc2c1c(=O)n(C)c(=O)n2C (centres unmarked) | 10.2 |
| Nc1c(S(=O)(=O)c2ccccc2)c2nc3ccccc3nc2n1/N=C/c1ccco1 | 8.28 |
| COC(=O)c1ccc(NC(=O)COc2ccc3c(c2)OCO3)cc1 | 9.95 |
| Cc1cc(=O)oc2cc(OCC(=O)N/N=C/c3ccccc3O)ccc12 | 23.9 |
| CC(=O)c1ccc(N2CCN(C(=O)c3ccc(-c4ccccc4)cc3)CC2)cc1 | 13.7 |
| COc1ccc(/C=C(\CC(=O)O)c2nc3ccccc3s2)cc1O | 22.8 |
| COc1ccc(NC(=O)c2nnn(CC(=O)Nc3ccc4c(c3)OCO4)c2N)c(OC)c1 | 15.3 |
| CCOC(=O)c1cccc(NC(=O)CSc2nnc(-c3ccoc3C)n2CC)c1 | -44.2 |
| COc1cc(/C=C/C(=O)O)cc(S(=O)(=O)Nc2ccc3c(c2)OCO3)c1OC | 1.63 |
| COc1ccc(N(CCN2C(=O)c3ccccc3C2=O)C(=O)c2cccc([N+](=O)[O-])c2)cc1 | -25.1 |
| O=C(Oc1cccc2cccnc12)c1ccc2c(c1)OCCO2 | -6.95 |
| CCN(CC)C(=O)C1CCCN(c2ccc([N+](=O)[O-])cc2[N+](=O)[O-])C1 (centres unmarked) | -38.3 |
| COCCCNC(=O)c1ccc2c(c1)ncn2-c1ccc(C)cc1C | -3.42 |
| Cc1ccc(-n2c(CC#N)n[nH]c2=S)c(C)c1 | 3.3 |
| Cc1[nH]c2ccc(-c3nnc(SCC(=O)c4ccccc4F)o3)cc2c1C | -1.24 |
| CN1CCC(N(C)CC(=O)Nc2cccc(Oc3ccccc3)c2)CC1.O=C(O)C(=O)O | -11.9 |
| O=C(O)c1ccccc1C(=O)Nc1ccccc1 | 3.87 |

| SMILES | hERG current change (%, negative = inhibition) at 10uM [%] |
| --- | --- |
| COc1cccc(NC(=O)c2cccc(C)c2[N+](=O)[O-])c1 | 0.407 |
| S=C(c1nc2ccccc2[nH]1)N1CCOCC1 | -1.17 |
| O=C(NCc1ccccc1)c1cc(-c2cccs2)on1 | 5.78 |
| O=C(CCS(=O)(=O)c1ccccc1)Nc1ccc(N2CCOCC2)cc1 | 8.58 |
| CC(=O)c1ccc(S(=O)(=O)NCC2(N3CCOCC3)CCCCC2)cc1 | -6.2 |
| O=C(NCCN1CCN(c2ccccc2)CC1)Nc1ccccc1Br | -52.1 |
| O=C(NC1CCN(S(=O)(=O)c2ccc(Cl)cc2)CC1)C1CCCCC1 | 6 |
| Cc1cc(C)c2c(n1)SCC(=O)N2CC(=O)Nc1cccc(Cl)c1 | -11.2 |
| O=C(Nc1cccnc1)c1ccc2nc(-c3ccccc3)c(-c3ccccc3)nc2c1 | 8.54 |
| Cc1ccc(CSCCNC(=O)CN(c2ccccc2)S(C)(=O)=O)cc1 | 1.75 |
| O=C(CCC(=O)N(c1ccccc1)C(C(=O)NC1CCCC1)c1ccncc1)Nc1cccnc1 (centres unmarked) | -1.02 |
| Cn1cccc1Cc1nnc(SCC(=O)NCCc2ccccc2)n1-c1ccc(F)cc1 | -21.6 |
| Cc1nc2ccc(NS(=O)(=O)c3ccc4c(c3)OCCO4)cc2s1 | -0.994 |
| O=C(CN1CCC(n2nnc3cc(C(F)(F)F)ccc32)CC1)NCc1cccs1 | -74.5 |
| CC(=O)c1cc(C)ccc1OC(=O)c1ccncc1 | 10.8 |
| Cc1nc(C)n(CC(O)COc2ccc3cc(Br)ccc3c2)n1 (centres unmarked) | 0.271 |
| C=CCn1c(O)c(/C=C2/C=CC=N2)c(=O)[nH]c1=O | 7.43 |
| COC(=O)CNC(=O)C1CC(=O)N(CCc2ccc(F)cc2)C1 (centres unmarked) | 25.5 |
| CCOC(=O)c1cnn(-c2ccccc2)c1-n1cccc1C(=O)C(=O)Nc1ccc(F)cc1 | 2.5 |
| COC(=O)C1=C(c2ccccc2OCc2ccccc2)C[C@@H]2CC[C@H]1N2C(=O)NCc1ccc(F)cc1 | -5.95 |
| CCOC(=O)c1c(-c2ccc(C)cc2)csc1NC(=O)C1CCCO1 (centres unmarked) | 2.72 |
| CCc1ccc(CN(C)C(=O)CCc2nnc(COc3ccccc3)o2)cc1 | -18.9 |

| SMILES | hERG current change (%, negative = inhibition) at 10uM [%] |
| --- | --- |
| Cc1ccc(Nc2cc(=O)n(C3CCCCC3)c(=O)[nH]2)cc1C | 12.4 |
| O=C1N(O)C2(C=CCCC2)/C(=N\O)C12CCCCC2 (centres unmarked) | 4.94 |
| Nc1nc(-c2cccnc2)nc(N2CCCCC2)n1 | -13.6 |
| Cl.NC(=O)CSc1nnc([C@@H](N)Cc2c[nH]c3ccccc23)o1 | 8.1 |
| CNc1nc(OCC#N)nc(N2CCCCC2)n1 | 6.01 |
| Cn1c(N)c(C(=O)CSc2nnc(-c3ccccc3F)n2C2CC2)c(=O)n(C)c1=O | 19.4 |
| Cc1cccc(N(CC(=O)NCCSc2nc3ccccc3s2)S(=O)(=O)c2ccccc2)c1 | 17.3 |
| Cc1ccc(-c2c(=O)n(O)c3ccccc3[n+]2[O-])cc1 | 17.4 |
| CCc1cc(-c2n[nH]c(=S)n2-c2cccc(C)c2)cs1 | 10.9 |
| CCOc1cc(CNC(C)(C)C)ccc1OCC(=O)Nc1cccc(C(F)(F)F)c1.Cl | -13.7 |
| CC(=O)c1ccc(OCC(=O)Nc2ccccc2N2CCCC2)cc1 | -2.74 |
| Cn1c(/C(C#N)=C2/CCCCCN2)nc2ccccc21 | -12.5 |
| O=C(CCN1C(=O)c2cccc3cccc(c23)C1=O)N1CCN(c2ccccc2F)CC1 | 6.93 |
| Cc1nn(C(C)C(=O)N2CCCCC2)c(=O)c2c1sc1ccccc12 (centres unmarked) | 7 |
| C=CCOC(=O)COc1ccc2c(C)c(C)c(=O)oc2c1C | -8.88 |
| [N-]=[N+]=NCCN1CCC(O)CCC1=O (centres unmarked) | -5.01 |
| CC(=O)c1cc(C#N)c(SCC(=O)C(C)(C)C)nc1C | -3.14 |
| O=C(CN(c1cccc(C(F)(F)F)c1)S(=O)(=O)c1ccccc1)N1CCOCC1 | -30.5 |
| O=C(Nc1ccc2ccccc2c1)c1cn(-c2ccccc2)nc1-c1cccs1 | 2.89 |
| O=C(NCCc1ccccc1)C1CCCN(c2ncnc3c2nc2n3CCCCC2)C1 (centres unmarked) | -59.9 |

From paper PMC4336329 (PLoS ONE, 2015)
